± gives the standard deviation of the averaged measurements. The full ranking holds about 33,000 sequences; the median of “E-score (dimensionless, -0.5 to 0.5)” is about -0.046, and the highest 2% start at about 0.36. The list shows a part of the results.
What follows are sequences tested on T1, SpTbr T-box DNA-binding domain (GST fusion) (assay: PBM E-score of 8-mer (E-score (dimensionless, -0.5 to 0.5)); Tbr is Tbrain of the sea star Patiria miniata (Pm) or the sea urchin Strongylocentrotus purpuratus (Sp); higher = stronger binding preference; most listed sequences are background and not binding sites). Settings: the construct has about 5 more residues each side.
T1 sequence: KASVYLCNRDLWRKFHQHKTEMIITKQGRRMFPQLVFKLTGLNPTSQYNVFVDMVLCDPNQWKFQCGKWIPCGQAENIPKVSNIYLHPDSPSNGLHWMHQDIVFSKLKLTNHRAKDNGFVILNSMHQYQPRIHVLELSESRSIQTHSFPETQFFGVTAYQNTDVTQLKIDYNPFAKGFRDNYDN
Procedure: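 Universal protein-binding microarray (Agilent AMADID 016060, 60-bp probes with a 35-bp variable region) incubated with 200 nM GST-fused Strongylocentrotus purpuratus Tbr T-box DNA-binding domain (residues 362-554) in PBS pH 7.5. Scored for every ungapped 8-mer (given with its reverse complement) as E-score (range -0.5 to 0.5; >0.45 counts as bound) and Z-score of median probe intensity. Two replicate arrays (datasets 1 and 2).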
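Further: protein at 200 nM in PBS on universal double-stranded arrays.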

Q: With ATCGTGGG as the sequence, how does the “PBM E-score of 8-mer” value read?
A: -0.0291 ± 0.046

Q: Which “PBM E-score of 8-mer” value does the source give for ATAGTCTG here?
A: -0.0622 ± 0.038

Q: CGTATCTC was tested. Which “PBM E-score of 8-mer” value did it give?
A: -0.174 ± 0.0059

Q: For AGCGGTAA, which “PBM E-score of 8-mer” value is on record?
A: -0.157 ± 0.0096

Q: Which “PBM E-score of 8-mer” value does the source give for ATAGGCAC here?
A: -0.0913 ± 0.025

Q: With AGTTAGCA as the sequence, how does the “PBM E-score of 8-mer” value read?
A: 0.284 ± 0.045

Q: Which “PBM E-score of 8-mer” value does the source give for ACTATACG here?
A: -0.14 ± 0.043

Q: With ACCAGAGG as the sequence, how does the “PBM E-score of 8-mer” value read?
A: -0.0184 ± 0.029

Q: For ACAATAGG, which “PBM E-score of 8-mer” value is on record?
A: -0.184 ± 0.045

Q: Which “PBM E-score of 8-mer” value does the source give for AATAAAGA here?
A: -0.229 ± 0.056

Q: For AATGCATA, which “PBM E-score of 8-mer” value is on record?
A: -0.221 ± 0.053

Q: For CACAGCCC, which “PBM E-score of 8-mer” value is on record?
A: -0.114 ± 0.0023

Q: How did the “PBM E-score of 8-mer” value turn out when GTGAAGGA was run?
A: 0.159 ± 0.075

Q: How did the “PBM E-score of 8-mer” value turn out when CAAACCGA was run?
A: -0.0123 ± 0.0069

Q: With ATGAACAC as the sequence, how does the “PBM E-score of 8-mer” value read?
A: -0.0339 ± 0.036

Q: For GCAAAGAA, which “PBM E-score of 8-mer” value is on record?
A: -0.148 ± 0.0053

Q: For AAAAATTT, which “PBM E-score of 8-mer” value is on record?
A: -0.309 ± 0.065

Q: Which “PBM E-score of 8-mer” value does the source give for ACGAAAAT here?
A: -0.0695 ± 0.0046

Q: For GCTTCGCA, which “PBM E-score of 8-mer” value is on record?
A: 0.358 ± 0.017

Q: Which “PBM E-score of 8-mer” value does the source give for AACAGGGG here?
A: -0.15 ± 0.039

Q: AGGGCAAG was tested. Which “PBM E-score of 8-mer” value did it give?
A: -0.277 ± 0.015

Q: How did the “PBM E-score of 8-mer” value turn out when ATACGATG was run?
A: -0.0862 ± 0.062

Q: How did the “PBM E-score of 8-mer” value turn out when GAGCGAGC was run?
A: -0.0313 ± 0.043

Q: Which “PBM E-score of 8-mer” value does the source give for ACGTATGG here?
A: -0.215 ± 0.041

Q: For ACTTCAAG, which “PBM E-score of 8-mer” value is on record?
A: -0.106 ± 0.081

Q: With ACTGTCTA as the sequence, how does the “PBM E-score of 8-mer” value read?
A: -0.0226 ± 0.061

Q: For ACTCTCAG, which “PBM E-score of 8-mer” value is on record?
A: 0.0254 ± 0.038

Q: For ACCCTGCT, which “PBM E-score of 8-mer” value is on record?
A: -0.0729 ± 0.034

Q: CGTCGACA was tested. Which “PBM E-score of 8-mer” value did it give?
A: 0.251 ± 0.031

Q: How did the “PBM E-score of 8-mer” value turn out when GACAAGCC was run?
A: 0.1546 ± 0.00077

Q: With CCGGAAAC as the sequence, how does the “PBM E-score of 8-mer” value read?
A: -0.0822 ± 0.012

Q: Which “PBM E-score of 8-mer” value does the source give for GGTCAGAA here?
A: -0.143 ± 0.051

Q: Which “PBM E-score of 8-mer” value does the source give for GGAATTAA here?
A: -0.262 ± 0.058

Q: CATACAAG was tested. Which “PBM E-score of 8-mer” value did it give?
A: -0.193 ± 0.069

Q: CCATGAGC was tested. Which “PBM E-score of 8-mer” value did it give?
A: -0.0466 ± 0.013

Q: CTCCGAAC was tested. Which “PBM E-score of 8-mer” value did it give?
A: -0.0378 ± 0.058

Q: For ATGTGTTG, which “PBM E-score of 8-mer” value is on record?
A: 0.381 ± 0.014

Q: Which “PBM E-score of 8-mer” value does the source give for AGGCTTGG here?
A: -0.225 ± 0.031

Q: AACCCGCA was tested. Which “PBM E-score of 8-mer” value did it give?
A: -0.0571 ± 0.0062

Q: Which “PBM E-score of 8-mer” value does the source give for GAGTCGAC here?
A: 0.107 ± 0.061

Q: AGAAAGTC was tested. Which “PBM E-score of 8-mer” value did it give?
A: -0.197 ± 0.0026

Q: How did the “PBM E-score of 8-mer” value turn out when ATAAATCG was run?
A: -0.0686 ± 0.065

Q: ACATAGTC was tested. Which “PBM E-score of 8-mer” value did it give?
A: -0.22 ± 0.038

Q: Which “PBM E-score of 8-mer” value does the source give for ACCTGTGC here?
A: 0.151 ± 0.018

Q: Which “PBM E-score of 8-mer” value does the source give for GGTTGCTA here?
A: -0.000465 ± 0.025

Q: CGAGTGAG was tested. Which “PBM E-score of 8-mer” value did it give?
A: 0.198 ± 0.029

Q: With GTCTTCGA as the sequence, how does the “PBM E-score of 8-mer” value read?
A: -0.205 ± 0.057

Q: Which “PBM E-score of 8-mer” value does the source give for TCTCCAGA here?
A: -0.0714 ± 0.033

Q: With AAGAGTGA as the sequence, how does the “PBM E-score of 8-mer” value read?
A: 0.219 ± 0.031

Q: AGAACACT was tested. Which “PBM E-score of 8-mer” value did it give?
A: 0.0626 ± 0.08

Q: How did the “PBM E-score of 8-mer” value turn out when GCGTCATA was run?
A: 0.162 ± 0.073

Q: How did the “PBM E-score of 8-mer” value turn out when CTACCAAA was run?
A: -0.0631 ± 0.0097

Q: With GACTGGGA as the sequence, how does the “PBM E-score of 8-mer” value read?
A: -0.078 ± 0.025

Q: For ATAGCGAG, which “PBM E-score of 8-mer” value is on record?
A: 0.181 ± 0.045

Q: For GACAGGGC, which “PBM E-score of 8-mer” value is on record?
A: -0.2295 ± 0.00042

Q: For CTCCCAAC, which “PBM E-score of 8-mer” value is on record?
A: -0.0533 ± 0.028

Q: Which “PBM E-score of 8-mer” value does the source give for ACTCAGCA here?
A: -0.089 ± 0.02

Q: CTCGTCGC was tested. Which “PBM E-score of 8-mer” value did it give?
A: 0.13 ± 0.024

Q: With AGGTCAAA as the sequence, how does the “PBM E-score of 8-mer” value read?
A: -0.245 ± 0.0091

Q: How did the “PBM E-score of 8-mer” value turn out when GTCGGATA was run?
A: -0.201 ± 0.019

Q: How did the “PBM E-score of 8-mer” value turn out when ACTATATC was run?
A: -0.0434 ± 0.083

Q: CATAGCTA was tested. Which “PBM E-score of 8-mer” value did it give?
A: -0.353 ± 0.012

Q: ATGGAGAG was tested. Which “PBM E-score of 8-mer” value did it give?
A: -0.214 ± 0.029

Q: With CGAGGCCA as the sequence, how does the “PBM E-score of 8-mer” value read?
A: -0.00878 ± 0.048

Q: With AGGCGACG as the sequence, how does the “PBM E-score of 8-mer” value read?
A: 0.301 ± 0.066

Q: For GGGGACCC, which “PBM E-score of 8-mer” value is on record?
A: -0.0329 ± 0.083

Q: How did the “PBM E-score of 8-mer” value turn out when AATCTCCT was run?
A: -0.0342 ± 0.087

Q: Which “PBM E-score of 8-mer” value does the source give for CCCGTGAC here?
A: 0.134 ± 0.0048

Q: How did the “PBM E-score of 8-mer” value turn out when TCAGTCAA was run?
A: -0.2 ± 0.012

Q: For GATTGCGC, which “PBM E-score of 8-mer” value is on record?
A: 0.211 ± 0.032

Q: How did the “PBM E-score of 8-mer” value turn out when CAGGGCGC was run?
A: 0.154 ± 0.032

Q: CGCGGAAC was tested. Which “PBM E-score of 8-mer” value did it give?
A: -0.0666 ± 0.02

Q: How did the “PBM E-score of 8-mer” value turn out when GGCGACAA was run?
A: 0.3676 ± 0.0007

Q: For ACAGCCAA, which “PBM E-score of 8-mer” value is on record?
A: 0.00932 ± 0.037

Q: Which “PBM E-score of 8-mer” value does the source give for ACAAGGGC here?
A: -0.0968 ± 0.043

Q: How did the “PBM E-score of 8-mer” value turn out when AGTGTAAG was run?
A: 0.26 ± 0.072

Q: Which “PBM E-score of 8-mer” value does the source give for CCCTAAGG here?
A: -0.257 ± 0.032

Q: With AGCGGAGA as the sequence, how does the “PBM E-score of 8-mer” value read?
A: -0.000225 ± 0.0072

Q: With ATTTTGGC as the sequence, how does the “PBM E-score of 8-mer” value read?
A: -0.222 ± 0.022

Q: ACTTTAAC was tested. Which “PBM E-score of 8-mer” value did it give?
A: 0.0899 ± 0.06

Q: ACTGGTTA was tested. Which “PBM E-score of 8-mer” value did it give?
A: -0.0491 ± 0.0029

Q: Which “PBM E-score of 8-mer” value does the source give for ACAGGCCA here?
A: 0.0135 ± 0.02

Q: How did the “PBM E-score of 8-mer” value turn out when ATATCCCA was run?
A: 0.0562 ± 0.021

Q: With CAGTTGTA as the sequence, how does the “PBM E-score of 8-mer” value read?
A: -0.0476 ± 0.062

Q: With CGTCAATC as the sequence, how does the “PBM E-score of 8-mer” value read?
A: 0.16 ± 0.018

Q: With AGAAGTAG as the sequence, how does the “PBM E-score of 8-mer” value read?
A: -0.229 ± 0.025

— the supplement of paper PMC4166925
